Assay results taken from PubChem BioAssay AID504332 (National Center for Advancing Translational Sciences (NCATS), 2011).
Screen size: about 350,000 compounds; about 31,000 (8.9%) were called active. This list was built around the results that the source calls inconclusive (neither active nor inactive); the mix of calls is not that of the screen. Calls follow the shape of the dose curve; as a rule, active = well fitted inhibition curve with a large enough effect; inconclusive = small, poorly fitted or top-dose-only effect; inactive = no such curve, though single readings can be large or run the other way. Potencies of inconclusive entries are doubtful fits and often do not repeat.

molecular target: Histone-lysine N-methyltransferase EHMT2 (Homo sapiens) (UniProt Q96KQ7); test: qHTS Assay for Inhibitors of Histone Lysine Methyltransferase G9a; details: G9a H3K9 monomethylation, AlphaScreen, 2 h; activity, negative = inhibition: at 59 µM (top of the series) unless noted; also: nearly all actives have a fitted effect of over 75% in size
Chain of UniProt Q96KQ7 (Q96KQ7 whole entry, looked up): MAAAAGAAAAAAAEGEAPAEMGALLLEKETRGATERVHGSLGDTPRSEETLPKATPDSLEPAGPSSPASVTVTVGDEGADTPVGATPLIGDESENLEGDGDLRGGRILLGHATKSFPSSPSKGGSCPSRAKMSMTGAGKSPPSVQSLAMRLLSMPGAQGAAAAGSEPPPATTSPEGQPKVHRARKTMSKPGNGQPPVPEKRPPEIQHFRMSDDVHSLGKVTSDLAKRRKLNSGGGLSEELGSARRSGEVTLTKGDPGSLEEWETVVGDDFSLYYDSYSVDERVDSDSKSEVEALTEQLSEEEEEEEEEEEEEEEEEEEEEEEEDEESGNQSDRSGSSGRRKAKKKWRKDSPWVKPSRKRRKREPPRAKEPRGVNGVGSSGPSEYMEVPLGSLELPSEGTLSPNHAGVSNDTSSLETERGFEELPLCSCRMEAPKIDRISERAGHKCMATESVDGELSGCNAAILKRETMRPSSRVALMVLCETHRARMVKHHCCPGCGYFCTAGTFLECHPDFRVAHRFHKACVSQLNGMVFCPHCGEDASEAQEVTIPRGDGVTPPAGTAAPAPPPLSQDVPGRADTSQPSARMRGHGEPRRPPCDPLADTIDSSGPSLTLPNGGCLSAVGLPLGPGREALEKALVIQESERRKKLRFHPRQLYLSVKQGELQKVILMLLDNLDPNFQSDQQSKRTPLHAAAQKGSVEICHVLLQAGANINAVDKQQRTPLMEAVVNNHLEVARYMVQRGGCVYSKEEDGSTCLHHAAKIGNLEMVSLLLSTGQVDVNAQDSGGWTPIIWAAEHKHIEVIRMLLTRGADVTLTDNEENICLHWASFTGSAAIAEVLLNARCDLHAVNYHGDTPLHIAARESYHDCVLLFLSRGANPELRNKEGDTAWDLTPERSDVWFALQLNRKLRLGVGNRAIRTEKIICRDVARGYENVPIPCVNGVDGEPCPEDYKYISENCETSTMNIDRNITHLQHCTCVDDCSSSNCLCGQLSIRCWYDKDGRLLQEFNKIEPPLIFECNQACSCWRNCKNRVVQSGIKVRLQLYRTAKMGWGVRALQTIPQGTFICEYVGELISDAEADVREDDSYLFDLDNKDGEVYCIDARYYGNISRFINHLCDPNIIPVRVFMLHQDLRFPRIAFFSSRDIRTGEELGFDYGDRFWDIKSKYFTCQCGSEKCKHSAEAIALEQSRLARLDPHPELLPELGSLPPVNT
In short: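 AlphaScreen read-out: biotin-H3K9 peptide (500 nM) methylation by 20 nM enzyme with 20 uM SAM, 2 h at room temperature after 15 min compound preincubation; anti-monomethyl H3K9 antibody plus donor/acceptor beads, 10 min dark.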
% is scaled to controls: 0 for no effect and ±100 for the full control effect; potency is read from the fitted curve at half-maximal effect; tags tell the direction and shape of the fitted curve.

Structure (SMILES)	Potency	activity, negative = inhibition
Cc1c(S(=O)(=O)Nc2cc(Cl)ccc2Cl)c(=O)n(C)c(=O)n1C	inactive	–
CC(=O)c1ccc(NC(=O)CC23CC4CC(C2)CC(n2nnc(C)n2)(C4)C3)cc1	inconclusive: 11.2 µM [inhibitor, partial curve, poor fit]	–
COc1cccc(C2=CC(c3cccs3)n3nnnc3N2)c1 (stereo unspecified)	inconclusive: 28.2 µM [inhibitor, single point]	–
O=C(COc1ccc(/C=N/NC(=O)c2ccccc2O)cc1)Nc1ccccc1	inconclusive: 79.4 µM [inhibitor, single point]	–
CCc1cccc(C)c1NC(=S)NCC1CCN(c2ccc(OC)cc2)C1 (stereo unspecified)	active: 10 µM	–
O=C(Nc1ccc2c(c1)OCO2)N1CCN(c2ncc(C(F)(F)F)cc2Cl)CC1	–	inconclusive: -64.9% [inhibitor]
Cc1cccn2c(=O)c3cc(C(N)=S)c(=N)n(CCCOC(C)C)c3nc12	inconclusive: 39.8 µM [inhibitor, single point]	–
COc1ccc([C@]23Cc4ccccc4C(O2)C2=C(O3)C(=O)c3ccccc3C2=O)cc1	inconclusive: 1.12 µM [inhibitor, single point]	–
CC(C)Cc1cc(C(=O)NCCCN2CCOCC2)no1	inconclusive: 56.2 µM [inhibitor, single point]	–
CCCOC(=O)c1ccc(NC(=O)c2ccccc2OC)cc1	inconclusive: 39.8 µM [inhibitor, single point]	–
C/C(=C\c1cccc(Cl)c1Cl)C(=O)c1c(C)cc(C)[nH]c1=O	inactive	–
O=S1(=O)CCC(S(=O)(=O)N2CCCCCC2)C1 (stereo unspecified)	inconclusive: 0.141 µM [inhibitor, full curve, poor fit]	–
O=C(NCCCn1ccnc1)/C(=C\c1cccnc1)NC(=O)c1cccc(Br)c1	inconclusive: 79.4 µM [inhibitor, partial curve, poor fit]	–
CN1C(=O)CC(N2CCN(CCN=CC3=C(O)CC(C)(C)CC3=O)CC2)C1=O (stereo unspecified)	inactive	–
COc1cccc(CNC(=O)c2cc(C)nc3c2c(C)nn3-c2cccc(F)c2)c1	inactive	–
Cc1cccc(NC(=O)CN2C(=O)c3ccccc3S2(=O)=O)n1	inconclusive: 89.1 µM [inhibitor, partial curve, poor fit]	–
CCCOc1ccc(S(=O)(=O)NCCN2CCOCC2)c2ccccc12	–	inconclusive: -59.6% [inhibitor]
Cc1ccc(-n2cc(CNCCN3CCOC3=O)c(-c3ccc(F)cc3)n2)cc1	inactive	–
COC(=O)c1cc(NC(=O)c2nn(C)c3c2COc2ccccc2-3)cc(C(=O)OC)c1	inconclusive: 25.1 µM [inhibitor, single point]	–
COC(=O)c1oc2ccc(Br)cc2c1-n1cccc1	inactive	–
CC(Sc1nc2c(c(=O)[nH]1)CCCC2)C(=O)Nc1ccc(Br)cn1 (stereo unspecified)	inconclusive: 79.4 µM [inhibitor, single point]	–
CCOC(=O)c1ccc(NC(=O)Nc2cc3c(cc2N2CCCC2)n(C)c(=O)n3C)cc1	inconclusive: 10 µM [inhibitor, partial curve]	–
COc1ccc(N2CCN(C(=O)c3cccc(NC(=O)c4nsc5ccccc45)c3)CC2)cc1	active: 10 µM	–

Structure (SMILES)	Potency	activity, negative = inhibition
Cc1c(Br)cnn1C(C)C(=O)N1CCN(c2ccc(F)cc2)CC1 (stereo unspecified)	inconclusive: 4.47 µM [inhibitor, partial curve, poor fit]	–
COC(=O)c1[nH]c2ccc(Cl)cc2c1NC(=O)Oc1ccccc1	inconclusive: 8.91 µM [inhibitor, partial curve, poor fit]	–
CCC(CC)C(=O)Nc1nc2c(s1)CC(C)CC2 (stereo unspecified)	inactive	–
Cc1ccc(C(=O)Nc2cccc(C(F)(F)F)c2)cc1Nc1cncnc1	inconclusive: 89.1 µM [inhibitor, single point]	–
COc1ccc(/C=C(\C#N)C(=O)Nc2cccc3ncccc23)cc1OC	–	inconclusive: -79.1% [inhibitor]
CSc1ccccc1NC(=S)Nc1ccc(S(N)(=O)=O)cc1	inconclusive: 28.2 µM [inhibitor, partial curve, poor fit]	–
O=C(Nc1ccccc1N1CCN(C(=O)c2ccc(Cl)cc2)CC1)c1cccc(F)c1	inactive	–
COc1cc2c(cc1OC)-c1cc(NC3CCCC3)nc(=O)n1CC2	inactive	–
COc1ccc(CNC(=O)c2ccc(CS(=O)Cc3ccccc3Cl)o2)cc1 (stereo unspecified)	inactive	–
O=C(Nc1ccccc1N1CCOCC1)C1Cc2ccccc2CN1C(=O)c1ccco1 (stereo unspecified)	inconclusive: 25.1 µM [inhibitor, single point]	–
Cc1ccc(C2c3[nH]c4ccccc4c3CCN2C(=O)CCC2CCCC2)cc1 (stereo unspecified)	inactive	–
O=C(CSc1ncnc2c1nnn2Cc1ccccc1)NC1CCCC1	inactive	–
O=C(C1CCCCN1S(=O)(=O)c1ccccc1)N1CCN(Cc2ccccc2)CC1 (stereo unspecified)	inconclusive: 17.8 µM [inhibitor, single point]	–
CCc1nnc(NC(=O)CCN2C(=O)C3CCCCC3C2=O)s1 (stereo unspecified)	inactive	–
Cc1cc(N)nc(SCC(=O)N2C(C)CCCC2C)n1 (stereo unspecified)	inconclusive: 89.1 µM [inhibitor, single point]	–
Cc1ccc(Nc2cc(C)nc3c(C)ccc([N+](=O)[O-])c23)cc1	active: 11.2 µM	–
COc1ccc(-c2csc(NCc3ccco3)n2)cc1	active: 39.8 µM	–
CCOC(=O)c1cn(CC)c2ccc(S(=O)(=O)N3CC(C)CC(C)C3)cc2c1=O (stereo unspecified)	inconclusive: 50.1 µM [inhibitor, partial curve]	–
COc1ccccc1CCNS(=O)(=O)c1ccc(N2CCCCS2(=O)=O)cc1	inactive	–
NC(=S)N/N=C/c1c[nH]c2ccc(OCc3ccccc3)cc12	active: 39.8 µM	–
CCC1CCC2(CC1)NC(=O)N(CC(=O)Nc1cccc(S(=O)(=O)N(C)c3ccccc3)c1)C2=O (stereo unspecified)	active: 5.62 µM	–
C(#Cc1ccccc1)CN1CCN(c2ccccn2)CC1	inconclusive: 35.5 µM [inhibitor, partial curve, poor fit]	–
COc1cc2c(cc1OC)CN(C(=O)CN1CCN(S(=O)(=O)c3ccccc3Br)CC1)CC2	inconclusive: 28.2 µM [inhibitor, full curve, poor fit]	–
